Measurements as given in patent US20220387557A1 (OXFORD UNIVERSITY INNOVATION, published 2022).

How the values were obtained:
[1] = target: T1, Fc tagged mouse TNFR1 (Sino Biological) (mouse, UniProt P25118 22-212, limits assumed); experiment: SPR (Biacore T200) single cycle kinetics, Fc-tagged receptor captured on Protein A chip, TNF protein as analyte at 1.67-15 nM
T1 construct: Bought reagent; also called mTNFR1; mTNFR1-Fc; not shown: Fc tag of the bought protein
T1 sequence (looked up): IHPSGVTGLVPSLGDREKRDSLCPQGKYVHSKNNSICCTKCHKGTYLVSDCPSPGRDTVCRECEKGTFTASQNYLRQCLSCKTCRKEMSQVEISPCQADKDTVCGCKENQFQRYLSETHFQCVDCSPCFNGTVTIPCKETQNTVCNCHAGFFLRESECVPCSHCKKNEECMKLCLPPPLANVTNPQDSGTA
Method: (§1) Single cycle kinetic analysis was performed using a Biacore T200 (serial no. 1909913) running Biacore T200 Evaluation Software V2.0.1 (Uppsala, Sweden). All experiments were run at 25° C. with HBS-P+ running buffer (pH 7.4) (GE Healthcare, Little Chalfont, UK).
(§2) Due to the limit in the number of available flow cells for analysis (three Fc per analysis, Fc2, Fc3 and Fc4, with Fc1 always being used as blank reference for non-specific subtraction), receptor binding was assessed in two separate overlapping runs using either: hTNFR1 (Fc2), hTNFR2 (Fc3) and mTNFR1 (Fc4), or; hTNFR1 (Fc2), […] and mTNFR2 (Fc4). Receptors were diluted in running buffer to a concentration of ˜4 μg/mL and at the start of each cycle loaded onto Fc2, Fc3 and Fc4 of a Protein A chip (GE Healthcare, Little Chalfont, UK) at a flow rate of 10 μL/min to give an RU of 40-100. The surface was then allowed to stabilise. Single cycle kinetic data was obtained at a flow rate of 45 μL/min. […] The association phase for the three injections of increasing concentrations of TNF was monitored for 240 seconds and a single dissociation phase was measured for 2700 seconds following the last injection of TNF. Regeneration of the Protein A surface was conducted using 10 mM glycine-HCl pH 1.5. The signal from the reference channel Fc1 (no receptor) was subtracted from that of Fc2, Fc3 and Fc4 to correct for differences in non-specific binding to a reference surface.
(§3) Controls were used to ensure the integrity of the receptors during the Biacore run.

[2] = target: T2, Fc tagged mouse TNFR2 (Sino Biological) (mouse, UniProt P25119 23-258); experiment: as above
T2 construct: Bought reagent; also called mTNFR2; mTNF2; not shown: Fc tag of the bought protein
T2 sequence (looked up): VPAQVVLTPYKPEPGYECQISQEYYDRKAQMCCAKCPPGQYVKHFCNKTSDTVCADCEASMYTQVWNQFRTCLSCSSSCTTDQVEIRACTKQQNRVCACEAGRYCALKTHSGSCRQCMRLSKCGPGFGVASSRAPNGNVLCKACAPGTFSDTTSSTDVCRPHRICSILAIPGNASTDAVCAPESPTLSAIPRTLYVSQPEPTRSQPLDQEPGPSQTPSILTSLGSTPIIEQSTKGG
Method: as §1, §2, §3

[3] = target: T3, Fc tagged human TNFR2 (Sino Biological) (human, UniProt P20333 23-257); experiment: as above
T3 construct: Bought reagent; also called hTNFR2; hTNFR2-Fc; not shown: Fc tag of the bought protein
T3 sequence (looked up): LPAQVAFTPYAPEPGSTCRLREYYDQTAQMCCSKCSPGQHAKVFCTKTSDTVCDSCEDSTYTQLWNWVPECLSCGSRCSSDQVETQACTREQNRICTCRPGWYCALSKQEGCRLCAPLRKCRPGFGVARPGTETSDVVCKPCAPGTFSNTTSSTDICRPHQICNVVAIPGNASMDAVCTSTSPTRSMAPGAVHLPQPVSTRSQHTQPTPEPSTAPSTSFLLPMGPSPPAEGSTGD
Method: as §1, §2, §3

[4] = target: T4, Fc tagged human TNFR1 (Sino Biological) (human, UniProt P19438 22-211, limits assumed); experiment: SPR, Biacore T200 multi cycle kinetics, receptor-Fc captured on Protein A chip, TNF 1.25-40 nM, 1:1 model
T4 construct: Bought reagent; also called hTNFR1; hTNFR1-Fc; not shown: Fc tag of the bought protein
T4 sequence (looked up): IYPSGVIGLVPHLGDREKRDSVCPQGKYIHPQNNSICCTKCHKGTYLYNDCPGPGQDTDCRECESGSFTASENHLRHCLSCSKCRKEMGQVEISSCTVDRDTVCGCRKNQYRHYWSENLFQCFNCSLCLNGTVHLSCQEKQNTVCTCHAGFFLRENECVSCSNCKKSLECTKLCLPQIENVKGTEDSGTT
Method: Multi cycle kinetics analysis of binding to hTNFR1, hTNFR2, mTNFR1 and mTNFR2 was performed on the 10 lead variants using a Biacore T200 (serial no. 1909913) instrument running Biacore T200 Evaluation Software V3.0.1 (Uppsala, Sweden) to characterise further the binding to these receptors.
As with the single cycle kinetics, receptor binding was assessed in two separate experiments. In the first set of experiments binding to hTNFR1 (Fc2), hTNFR2 (Fc3) and mTNFR1 (Fc4) was assessed. In the second set of experiments the extent of mTNF2 (Fc4) binding was assessed using hTNFR1 (Fc2) and hTNFR2 (Fc3) as controls. All receptors were diluted in running buffer to a concentration of ˜4 μg/mL and at the start of each cycle loaded onto Fc2, Fc3 and Fc4 of a Protein A CM5 chip and captured at a flow rate of 10 μL/min to give an RU of ˜40-100. The surface was then allowed to stabilise. All kinetic data was obtained using a flow rate of 75 μl/min to minimise any potential mass transfer effects. […] The association phase of TNF was monitored for 280 seconds and the dissociation phase was measured for 2100 seconds. […] Regeneration of the Protein A surface was conducted using two injections of 10 mM glycine-HCL pH 1.5 at the end of each cycle. […]

B1: hTNF R32W S86T, soluble protein expressed from pANT65 (ligand)
chain: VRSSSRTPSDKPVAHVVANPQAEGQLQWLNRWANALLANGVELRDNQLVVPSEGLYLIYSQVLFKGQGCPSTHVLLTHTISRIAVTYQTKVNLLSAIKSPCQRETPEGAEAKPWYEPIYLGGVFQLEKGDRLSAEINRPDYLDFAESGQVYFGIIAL
notes: Comparator mutein of Loetscher et al., made by Quikchange mutagenesis of hTNF. 'S86R' in several paragraphs is read as a misprint of S86T; also called hTNF R32W S86R (as sometimes printed); human TNF RWST; not shown: C-terminal FLAG tag and His6 tag from vector pANT65
binding result [1]: no binding (tested: 15 nM) | binding result [2]: no binding (tested: 15 nM) | binding result [3]: no binding (tested: 15 nM) | Kd [4]: 3.54 nM
